Test results: PubChem BioAssay AID1745853 (National Center for Advancing Translational Sciences (NCATS), 2022)
This is one part of the list. The main result of the screen is listed elsewhere. These columns were measured beside it and carry no call.

How the values were obtained:
Assay in all cases: Primary Screen for Target Class Profiling of Small Molecule Inhibitors of Methyltransferases
[1] = molecular target: Glycine N-methyltransferase (Homo sapiens) (UniProt Q14749); details: purified enzyme, MTase-Glo SAH luminescence; measured here: GNMT inhibition; at 40 µM; stronger effect = lower value
In short: (§1)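 Each enzyme was reacted with SAM and its substrate, with compounds tested once at 40 uM; SAH formed was read by MTase-Glo luminescence.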

[2] = molecular target: Guanidinoacetate N-methyltransferase (Homo sapiens) (UniProt Q14353); details: purified enzyme, MTase-Glo SAH luminescence; measured here: GAMT inhibition; at 40 µM; stronger effect = lower value
In short: as §1

[3] = molecular target: Histamine N-methyltransferase (Homo sapiens) (UniProt P50135); details: purified enzyme, MTase-Glo SAH luminescence; measured here: HNMT inhibition; at 40 µM; stronger effect = lower value
In short: as §1

[4] = molecular target: Nicotinamide N-methyltransferase (Homo sapiens) (UniProt P40261); details: purified enzyme, MTase-Glo SAH luminescence; measured here: NNMT inhibition; at 40 µM; stronger effect = lower value
In short: as §1

[5] = molecular target: Phenylethanolamine N-methyltransferase (Homo sapiens) (UniProt P11086); details: purified enzyme, MTase-Glo SAH luminescence; measured here: PNMT inhibition; at 40 µM; stronger effect = lower value
In short: as §1
On the % scale 0 is the no-effect control and ±100 the full control effect.

SMILES | activity change, negative = inhibition [1] [%] | activity change, negative = inhibition [2] [%] | activity change, negative = inhibition [3] [%] | activity change, negative = inhibition [4] [%] | activity change, negative = inhibition [5] [%]
O=C([C@H]1C[C@H](Oc2cccnc2)CN1C(=O)c1ccc2ccccc2n1)N1CCOCC1 | -3.62 | -9.77 | -2.51 | -10.8 | -6.98
COc1ccc(OC)c(-c2ccc(NC(=O)c3ccncc3F)cc2)c1 | -0.077 | -13.2 | 11.4 | -24.8 | -5.73
O=C(Nc1cc(-c2ccccc2)nn1-c1ccccc1)c1ccc([N+](=O)[O-])cc1 | 7 | -3.19 | 6.98 | -16.7 | -4.06
Cc1ccc(NC(=O)Cn2c(=O)oc3cc(S(=O)(=O)NCc4ccccc4)ccc32)cc1 | -6.41 | 0.044 | 6.07 | -2.17 | -0.231
O=C(Nc1c(-c2cccs2)nc2ccccn12)c1ccc(Cl)cc1 | -15.6 | -0.572 | 6.79 | -34.3 | 1.18
CCCCN1C(=O)c2cc(C(=O)Nc3cccc(C)c3C)nn2CC1(C)C(=O)NC1CCCC1 (stereo not drawn) | 2.33 | 0.34 | 3.98 | -0.785 | 4.25
COc1ccccc1C(=O)Nc1ccc2c(c1)C(=O)N(C)C1=NCCN12 | -4.54 | -1.29 | -13 | -2.64 | -3.8
CC1=C2C3OC(=O)C(C)C3(O)CCC2(C)CCC1 (stereo not drawn) | -0.926 | 3.02 | 4.49 | -8.38 | -1.8
COC[C@@H]1CN(C(=O)CCc2c(C)nn(C)c2C)C[C@H]1c1ccccn1 | -4.12 | -2.87 | -2.15 | -2.28 | -5.58
COC(=O)N1CCN(Cc2cccc(NC(=O)Nc3ccc(C)nc3)c2F)CC1 | -21.4 | -7.42 | -2.29 | -19.2 | -5.62
NC(=O)C1=CN(C2OC(COP(=O)(O)OP(=O)(O)OC[C@H]3O[C@@H](n4cnc5c(N)ncnc54)[C@H](OP(=O)(O)O)[C@@H]3O)C(O)C2O)C=CC1 (stereo partly drawn) | 21.9 | 51 | 19.1 | 126 | 29.6
O=C1CCC(c2ccccc2)(C2CCN(Cc3ccc(I)cc3)CC2)C(=O)N1 (stereo not drawn) | -3.55 | -8.15 | -7.46 | -26.6 | -6.11
COc1ccc(-c2cc3n(n2)CC(C)(C(=O)NC2CCCCC2)N(CC2CCCO2)C3=O)cc1 (stereo not drawn) | -0.277 | 3.69 | -0.658 | -5.9 | -6.78
O=C(O)CSc1cc(NS(=O)(=O)c2ccc(Br)cc2)c2ccccc2c1O | -95.6 | -50.7 | -79.3 | -37.5 | -83.5
Cc1ccc(NC(=O)Cn2nc3n(C(C)C)c(=O)c4ccc(C(=O)NCC(C)C)cc4n3c2=O)cc1 | -0.427 | 1.11 | 1.14 | 1.72 | 6.06
CC(=O)N[C@H]1[C@H](O[C@H]2CC[C@]3(C)C4CC=C5[C@@H]6CC(C)(C)CC[C@]6(C(=O)O)[C@H](O)C[C@@]5(C)[C@]4(C)CC[C@H]3C2(C)C)O[C@H](CO)[C@@H](O)[C@@H]1O (stereo partly drawn) | -3.75 | -26.1 | 1.2 | -27 | -8.66
CN(C)CCCN1c2ccccc2CCc2ccc(Cl)cc21 | -5.07 | 5 | -33.8 | -18.2 | 6.05
COc1ccccc1NS(=O)(=O)c1cc2c(cc1Cl)n(C)c(=O)n2C | 15.1 | 0.708 | 9.5 | 7.4 | 7.11
Cc1ccc(NC(=O)CN(C)S(=O)(=O)c2ccc3[nH]c4c(c3c2)CCCC4)cc1 | 4.39 | 0 | 2.08 | -2.42 | 3.55
Cc1cc(C(=O)N2CCC(F)(c3nc(-c4ccncc4)no3)CC2)n[nH]1 | -2.21 | 0.173 | -0.686 | -7.14 | 10.9

SMILES | activity change, negative = inhibition [1] [%] | activity change, negative = inhibition [2] [%] | activity change, negative = inhibition [3] [%] | activity change, negative = inhibition [4] [%] | activity change, negative = inhibition [5] [%]
COc1cc(Br)c(S(=O)(=O)Nc2ccc(Cl)c(O[C@@H]3CCN(C)C3)c2)cc1OC | 1.94 | -5.2 | -28.2 | -20.8 | -9.99
CC(C)CCNC(=O)CCc1nnc2n(Cc3ccccc3)c(=O)c3ccccc3n12 | -5.02 | 3.08 | -4.1 | 4.94 | -5.67
CC(=O)O[C@@H]1CC[C@@]2(C)C(CC[C@]3(C)C2[C@H](O)C=C2[C@H]4[C@@H](C)[C@H](C)CC[C@]4(C)CC[C@]23C)[C@@]1(C)C(=O)O (stereo partly drawn) | 2.66 | 8.22 | 11 | -16.7 | 3.92
COc1ccc(OC)c(S(=O)(=O)N2CCC3(CC2)CN(c2ccccc2)C3=O)c1 | -0.942 | 2.16 | 13.7 | 3.45 | 9.68
COc1ccc(CN2C(=O)c3ccc(-c4ccccc4)n3CC2(C)C(=O)NC2CCCCCC2)cc1 (stereo not drawn) | 6.6 | 3.15 | 1.87 | -0.081 | 0.229
Cc1cc(C)n(CC(=O)N2CCCCCCNC(=O)[C@@H]3CCCC[C@@H]32)n1 | -0.01 | 3.14 | -0.413 | -1.09 | 2.76
CC1CCC(NC(=O)C2(C)Cn3c(ccc3-c3ccco3)C(=O)N2C2CCCC2)CC1 (stereo not drawn) | -1.3 | 4.42 | 0.315 | -3.31 | -1.75
O=C(NC1CC1)c1ccc2c(=O)nc3c(-c4ccc(F)cc4)n[nH]n3c2c1 | -3.13 | -1.86 | -8.31 | -4.46 | -7.58
CCC(=O)N[C@@H]1Cc2ccccc2[C@H](c2ccccc2)C1 | 5.2 | 3.48 | 12.7 | -8.45 | 4.12
CC(c1ccccc1)N1C(=O)c2ccccc2CC1(C)C(=O)NC1CCCCCC1 (stereo not drawn) | -7.05 | 1.52 | -1.92 | -7.11 | -6.93
CC1(C(=O)NC2CCCC2)Cn2c(cc3ccccc32)C(=O)N1Cc1ccc2c(c1)OCO2 (stereo not drawn) | 0.91 | 0 | 0.475 | -4.03 | 1.66
CNC(=O)[C@@H]1C[C@H](Oc2ccccc2)CN1S(=O)(=O)c1cccs1 | -4.35 | -0.321 | 0.688 | -0.805 | -9.97
CCC1c2ccc(C)n2CCN1C(=O)Nc1cc(C)ccc1C (stereo not drawn) | -8.57 | 0.091 | -10.2 | -11.4 | -11.8
Cc1c(Cl)cccc1N1C(=O)c2cc3occc3n2CC1(C)C(=O)NC1CCCC(C)C1C (stereo not drawn) | -8.56 | -8.56 | 4.66 | -15.2 | -6.67
Cc1cccc(NC(=O)N2CCn3c(C)ccc3C2C(C)C)c1C (stereo not drawn) | 2.83 | 0 | -4.95 | -3.68 | 2.73
CC(C)c1noc(-c2cn(C3CCN(C(=O)Cc4ccc(F)cc4)C3)nn2)n1 (stereo not drawn) | -0.768 | 2.78 | 1.93 | -0.44 | 0.973
CNC(=O)c1ccccc1Oc1nc(Nc2cc(OC)c(OC)c(OC)c2)ncc1Br | – | -17 | – | -22.1 | -6.66
Cn1cccc1C(=O)N1CC[C@H](NC(=O)Nc2ccc(F)cc2F)[C@H]1C(=O)N[C@H](Cc1ccccc1)C(N)=O | -4.47 | -3.65 | -0.614 | -7.03 | -3.46
O=C(O)CC/C=C\C[C@H]1CO[C@@H](c2ccccc2Cl)O[C@H]1c1ccccc1O | -14.7 | -12.6 | 2.86 | -21.5 | -1.59
O=C1N(Cc2ccccc2F)CCOC12CCN(Cc1ccc(F)cc1F)CC2 | -5.92 | -0.445 | -8.42 | -17.1 | -10

SMILES | activity change, negative = inhibition [1] [%] | activity change, negative = inhibition [2] [%] | activity change, negative = inhibition [3] [%] | activity change, negative = inhibition [4] [%] | activity change, negative = inhibition [5] [%]
Cc1ccc(CCNC(=O)Cn2ccc3cc(S(=O)(=O)N4CCC(C)CC4)ccc32)cc1 | 6.45 | 5.78 | 6.92 | 2.86 | 1.9
O=C(O)CCc1cc2n(n1)CCCN(C(=O)c1cc3c([nH]c1=O)CCC3)C2 | -2.53 | -10.6 | -4.23 | -12.3 | -13.1
O=c1[nH]cc(F)c(=O)[nH]1 | -1.86 | 5.73 | -1.83 | -2.3 | 4.96
COCCNC(=O)c1ccc2c(c1)N(C)C(CC(=O)NCC(C)C)CO2 (stereo not drawn) | -0.748 | 0.223 | 2.41 | -0.452 | 4.25
CCc1ccccc1NC(=O)c1cc2c(N3CCSCC3)nc(C)cn2n1 | -2.55 | 0.539 | -10.5 | -4.1 | 5.78
COC(=O)c1cc2n(n1)CC(C)(C(=O)NC1CCCCC1)N(c1ccc(OC)cc1)C2=O (stereo not drawn) | 6.42 | 0 | 9.23 | 3.2 | 8.09
Cc1ccn(-c2cc(Cl)ccc2[C@@H](Oc2cc(-c3ccc(C[C@H](N)C(=O)O)cc3)nc(N)n2)C(F)(F)F)n1 | -84 | -12.2 | 6.63 | -43.5 | -0.505
CC1C2=CC(=O)OC2(O)CC2C1CCC1C(C)(C)CCC(O)C21C (stereo not drawn) | -6.18 | -5.92 | 7.29 | -21.9 | -13.7
O=C(Nc1ccccc1C(F)(F)F)N1CCCC(Cn2cnc3cccnc32)C1 (stereo not drawn) | 0.722 | -1.18 | 3.31 | -4.32 | -14.5
O=C1OC2(CCN(C(=O)c3ccco3)CC2)CN1CCOc1ccccc1 | -3.64 | -7.13 | -2.08 | -7.7 | -4.09
COc1cc(N(C)CCN(C)C)c(N)cc1Nc1nccc(-c2cn(C)c3ccccc23)n1 | 1.16 | 4.26 | -34.1 | -13.1 | -5.65
Cc1sc2c(c1C)C(c1ccc(Cl)cc1)=N[C@H](CC(=O)NCCCCNC(=O)COc1cccc3c1C(=O)N([C@H]1CCC(=O)NC1=O)C3=O)c1nnc(C)n1-2 | 0.357 | 14 | 1.89 | -69.2 | 2.7
COc1cccc(-c2cccc(C(=O)N3CCN([S+](=O)([O-])c4ccc(C)cc4)CC3)c2)c1 | -6.28 | -6.71 | -4.85 | -10.8 | -4.84
COc1ccccc1NS(=O)(=O)c1ccc2c(c1)n(C)c(=O)n2C | 0.456 | 7.13 | 6.21 | 7.51 | -1.63
O=C(CCCc1nnc2n3nc(-c4ccccc4)nc3c3ccccc3n12)NCCc1ccccc1 | 0.026 | 4.72 | 5.12 | 5.34 | -0.174
CN(C)c1nc(NC2CCC(NCCc3ccc(Br)cc3OC(F)(F)F)CC2)nc2ccccc12 (stereo not drawn) | -17 | 8.37 | -84.8 | -94.5 | -36.1
COc1ccc(NC(=O)CSc2nnc3n(Cc4ccc(C)cc4)c(=O)c4ccccc4n23)cc1 | -0.49 | 0 | 9.04 | 3.7 | 5.91
COc1ccc(-c2cc3n(n2)CC(C)(C(=O)NCc2ccccc2OC)N(c2ccc4c(c2)OCO4)C3=O)cc1 (stereo not drawn) | 3.36 | 0.909 | 2.36 | -4.19 | -3.69
